# Laboratory results: PubChem BioAssay AID1671194 (National Center for Advancing Translational Sciences (NCATS), 2021)
# The campaign covered roughly 140,000 compounds. About 240 (0.17%) were called active. Inconclusive results, whose numbers are uncertain, are shown with a selection of clear calls. Calls come from the whole dose curve; as a rule, active = well fitted inhibition curve with a large enough effect; inconclusive = small, poorly fitted or top-dose-only effect; inactive = no such curve, though single readings can be large or run the other way. Potencies of inconclusive entries are doubtful fits and often do not repeat.
# Assay: Primary qHTS assay for inhibitors of alpha-synuclein gene (SNCA) expression; note: nearly all actives have a fitted effect of over 45% in size;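 for activity change, negative = inhibition: plate controls were DMSO cells for no effect and cell-free wells for full effect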
# Conditions: HEK-293 SNCA-luciferase knock-in, luminescence, 24 h; activity change, negative = inhibition: at 57.2 µM (top of the series) unless noted
# Potency is the fitted concentration of half-maximal effect; tags give direction and shape of the fitted curve.
SMILES,Potency,"activity change, negative = inhibition"
Cc1cccc(NC(=O)CSc2nc(=O)n(Cc3ccncc3)c3c2CCC3)c1C,"inconclusive: 3.55 µM [inhibitor, full curve]",–
CN(Cc1cc(C[C@@H]2C[C@H](NC(=O)COc3ccccc3)C2(C)C)no1)c1ccccc1,"inconclusive: 56.2 µM [inhibitor, single point]",–
COc1ccc(CC(=O)N2Cc3ccccc3CC3(CCN(CC4CCNC4)C3)C2)cc1 (centres undefined),"inconclusive: 3.98 µM [inhibitor, single point]",–
COc1cccc2c1Oc1ncccc1N(c1ccc(C(=O)NCc3ccccc3C)s1)C2,"inconclusive: 2.82 µM [inhibitor, single point]",–
COc1cccc(-c2cccc(C(=O)N3CCCC3C(=O)N3CCN(Cc4ccccc4)CC3)c2)c1 (centres undefined),–,inactive: -20.2%
O=C(NCCc1ccc(F)cc1)C1CCCCN1Cc1ccc(-c2cccs2)cc1 (centres undefined),"inconclusive: 1.12 µM [inhibitor, full curve, poor fit]",–
COc1cc(NS(=O)(=O)c2ccc3c(c2)CC(=O)N3)cc(OC)c1OC,"inconclusive: 22.4 µM [inhibitor, single point]",–
CC[C@H]1CN(S(=O)(=O)c2ccc(OC)cc2)CC[C@H]1CC(=O)N1CCC(C(=O)OC)CC1,–,inactive: -8.87%
CCc1noc(-c2cccn3c(CNC(=O)COc4ccc(F)cc4)nnc23)n1,–,inactive: -22.8%
CC1=C(c2ccc(C(C)C)cc2)S(=O)(=O)N=C1N1CCN(c2ccc(F)cc2)CC1,"inconclusive: 3.16 µM [inhibitor, single point]",–
COc1ccccc1NC(=O)Cn1c(C)ccc(NC(=O)Nc2ccc(C)cc2)c1=O,–,inactive: 14.4%
CC(C)C(=O)N1CCC2(CC1)OC(=O)N(Cc1ncccn1)C2(C)c1ccccc1 (centres undefined),–,inactive: -3.01% [at 87.6 µM]
COCCn1cnc2ccc(OCC3CC3)nc2c1=O,"inconclusive: 3.16 µM [inhibitor, partial curve, poor fit]",–
O=C(O)c1ccc(O)c2ncc(N3CCOCC3)cc12,"inconclusive: 3.83 µM [inhibitor, full curve, poor fit]",–
Cc1csc(Nc2ccc3ncn(C)c(=O)c3n2)n1,–,inactive: 69.5% [at 87.6 µM]
Cc1noc2c(-c3cccc(CO)c3)cc(-c3ccc(F)cc3)nc12,–,inactive: -7.68% [at 87.6 µM]
Cc1nccn1CCNC(=O)c1ccc(N2CC3CC(C2)[C@H]2CCCC(=O)N2C3)nc1 (some centres undefined),"inconclusive: 31.6 µM [inhibitor, single point]",–
COc1cc2ncnc(-n3nc(-c4ccccn4)nc3N)c2cc1OC,"inconclusive: 42.9 µM [inhibitor, single point]",–
Cc1ccc(-c2nc(CNC(=O)[C@@H]3CCCN3)[nH]c2-c2ccccn2)cc1,–,inactive: -10%
